Measurements from PubChem BioAssay AID1508623 (National Center for Advancing Translational Sciences (NCATS), 2021).
Among all 48,000 compounds or so, about 450 (0.94%) were called active. This list was built around the results that the source calls inconclusive (neither active nor inactive); the mix of calls is not that of the screen. Calls follow the shape of the dose curve; as a rule, active = well fitted inhibition curve with a large enough effect; inconclusive = small, poorly fitted or top-dose-only effect; inactive = no such curve, though single readings can be large or run the other way. Potencies beside an inconclusive call are fits to weak or partial responses and may not hold up.

assay: Primary qHTS for Identification of Small Molecule Inhibitors of Huntingtin Promoter Activity; conditions: HEK293 HTT promoter firefly luciferase reporter (activity 0% = vehicle and -100% = no light), 24 h; series mostly up to 57.5 µM; also: nearly all actives have a fitted effect of over 50% in size
How it was run: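 Firefly luciferase readout (Dual-Glo, 10 min RT) after 24 h, 37 °C compound exposure (final up to 57.5 uM) of HEK293 reporter cells cultured 24 h beforehand; PTC124 at 50 uM final as control inhibitor; activity scaled vehicle 0%, zero RLU -100%.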
Potency is read from the fitted curve at half-maximal effect; tags tell the direction and shape of the fitted curve.

Compound | Potency
CCOC(=O)c1c(NC(=O)Cc2coc3ccc(CC)cc23)sc2c1CCC2 | inconclusive: 22.4 µM [inhibitor, single point]
COc1ccccc1NC(=O)N1CCN(c2ccc3nnc(-c4ccc(F)cc4)n3n2)CC1 | inactive
CCOc1ccccc1Nc1sc(C(=O)c2ccccc2)c(N)c1C(=O)Nc1ccc(F)cc1 | inconclusive: 12.6 µM [inhibitor, partial curve, poor fit]
COc1ccc(CNC(=O)C(=O)NCC(c2ccco2)S(=O)(=O)c2ccc(Cl)cc2)cc1 (stereo not given) | inconclusive: 31.6 µM [inhibitor, partial curve, poor fit]
COc1cccc(NC(=O)Cn2c(=O)oc3cc(S(=O)(=O)N4CCCCC4)ccc32)c1 | inconclusive: 25.1 µM [inhibitor, partial curve]
Cc1c(C)n(Cc2ccc(Cl)cc2)c2ccc(C(=O)N3CCN(c4ccccc4F)CC3)cc12 | inconclusive: 22.4 µM [inhibitor, single point]
Cc1cccc(-c2nn(C(=S)Nc3ccccc3)cc2-c2ccnc3ccccc23)n1 | inconclusive: 15.3 µM [inhibitor, partial curve, poor fit]
COc1ccc(OC)c(CCNC(=O)c2nc(-c3ccc(Cl)cc3)n3c2CCCCC3)c1 | inconclusive: 28.2 µM [inhibitor, partial curve, poor fit]
CC(C)COc1ccc(C(=O)N2CCCCC2CCN2CCOCC2)cc1 (stereo not given) | inactive
CSc1nn(Cc2ccc(F)cc2)c(N(C(C)=O)C(C)=O)c1S(=O)(=O)c1ccccc1 | inconclusive: 39.8 µM [inhibitor, single point]
Cc1ccc(C(=O)CSc2nc(C)cc(C)c2C(=O)Nc2cccc(C)c2)cc1 | inconclusive: 25.1 µM [inhibitor, partial curve, poor fit]
CC(=O)N1CCCc2ccc(NC(=O)c3ccc(OC(C)C)cc3)cc21 | inconclusive: 14.1 µM [inhibitor, single point]
COc1ccc(S(=O)(=O)c2c(Nc3cccc(Cl)c3)sc(C(=O)c3ccccc3)c2N)cc1 | inconclusive: 14.1 µM [inhibitor, partial curve, poor fit]
Cc1ccc2c(=O)cc(C(=O)Nc3c(C)cccc3C)oc2c1 | inconclusive: 31.6 µM [inhibitor, partial curve, poor fit]
CCc1ccc(C(=O)CC2(O)C(=O)N(CCc3ccccc3)c3ccc(Cl)cc32)cc1 (stereo not given) | inconclusive: 25.1 µM [inhibitor, partial curve, poor fit]
COc1ccc(CCNC(=O)C(=O)NCC(c2cccs2)S(=O)(=O)c2ccc(F)cc2)cc1 (stereo not given) | inconclusive: 35.5 µM [inhibitor, partial curve, poor fit]
COc1ccc(-c2nc(CSCC(=O)NCc3ccccc3Cl)c(C)o2)cc1OC | inconclusive: 35.5 µM [inhibitor, partial curve, poor fit]
FC(F)(F)c1cccc(Nc2c3c(nc4ccc(Cl)cc24)CCC3)c1 | inconclusive: 14.1 µM [inhibitor, partial curve, poor fit]
CCCCCN1C(C(=O)c2ccccc2)=C(OC(=O)CC)c2ccccc2S1(=O)=O | inconclusive: 8.91 µM [inhibitor, partial curve]
COc1cc(NC(=O)C2CCN(S(=O)(=O)c3c(C)noc3/C=C/c3ccccc3F)CC2)cc(OC)c1OC | inconclusive: 31.6 µM [inhibitor, single point]

Compound | Potency
Cc1ccc(CCNC(=O)c2ccc(Nc3nc4ccccc4n4nnnc34)cc2)cc1 | inactive
COc1ccc(NC(=O)CCn2cnc3onc(-c4ccc(F)cc4)c3c2=O)cc1OC | inconclusive: 10 µM [inhibitor, partial curve, poor fit]
COc1ccc(CCNC(=O)CCc2c(C)nc3cc(-c4cccc(F)c4)nn3c2C)cc1OC | inconclusive: 10 µM [inhibitor, partial curve]
CCCOc1ccc(C(=O)N(Cc2ccco2)Cc2ccco2)cc1 | inactive
O=C(C1CCCN(S(=O)(=O)c2cccc3nsnc23)C1)N1CCN(c2cccc(Cl)c2)CC1 (stereo not given) | inconclusive: 20 µM [inhibitor, partial curve, poor fit]
Cc1ccc2nc(-c3ccccn3)c(Nc3ccccc3C)n2c1 | active: 35.5 µM
CCc1cccc(C)c1NS(=O)(=O)c1ccc2c(c1)CC(C)N2C(=O)C1CC1 (stereo not given) | inconclusive: 35.5 µM [inhibitor, single point]
COc1ccc(-c2noc(CSc3nc4ccccc4[nH]3)n2)cc1OC | inconclusive: 11.2 µM [inhibitor, partial curve, poor fit]
[Cl][In]([Cl])[Cl] | inactive
Cc1csc2nc(COC(=O)c3ccc(NC(=O)C(C)Oc4ccccc4)cc3)cc(=O)n12 (stereo not given) | inconclusive: 15.8 µM [inhibitor, partial curve]
COc1ccc(CN2CCN(C(c3ccc(F)cc3)c3ccc(F)cc3)CC2)c(OC)c1OC | inactive
CC(C)N1[N]C(=C2C=c3cc(O)ccc3=N2)c2c(N)ncnc21 | inconclusive: 0.544 µM [inhibitor, full curve]
O=C(c1ccccc1)N1CCc2cc(CNS(=O)(=O)c3ccc(Cl)s3)ccc21 | inconclusive: 22.4 µM [inhibitor, single point]
Cc1oc(-c2ccc(Cl)cc2)nc1Cn1c(=O)cc(C)c2c(C)nn(-c3ccccc3)c21 | inactive
COc1ccc(S(=O)(=O)NCC(c2ccco2)S(=O)(=O)c2cccs2)cc1F (stereo not given) | inconclusive: 39.8 µM [inhibitor, single point]
CCOC(=O)c1ccc(N2C(=O)c3n[nH]c(C)c3C2c2cccc(Br)c2)cc1 (stereo not given) | inconclusive: 39.8 µM [inhibitor, single point]
COc1ccc(C(=O)c2cn(Cc3ccccc3F)c3cc4c(cc3c2=O)OCO4)cc1 | inconclusive: 39.8 µM [inhibitor, single point]
Cc1ccc2nc(N3CCC(C(=O)N4CCN(c5cccc(C)c5C)CC4)CC3)[nH]c2c1 | inconclusive: 25.1 µM [inhibitor, single point]
Cc1ccc(CNC(=O)c2nc(SCc3ccccc3F)ncc2Cl)cc1 | inactive
O=C(NCc1ccco1)c1ccc(Cn2c(SCc3ccc(F)cc3)nc3cccnc32)cc1 | inactive

Compound | Potency
Cc1cccc(-c2nnc(SCc3cc(=O)c4cccc(Cl)c4[nH]3)n2C)c1 | inconclusive: 14.1 µM [inhibitor, single point]
CCCN(Cc1cccs1)C(=O)Nc1ccc(OCC)cc1 | inactive
Cc1ccc(C2CCN(C(=O)c3cnn(-c4cccc(Cl)c4)c3C3CCN(C(=O)OC(C)(C)C)CC3)C2)cc1 (stereo not given) | inconclusive: 22.4 µM [inhibitor, partial curve]
COc1ccc(NC(=O)CSc2nc3c([nH]c4ccccc43)c(=O)n2-c2ccccc2)c(OC)c1 | inconclusive: 17.8 µM [inhibitor, partial curve, poor fit]
CCN(CC)S(=O)(=O)c1ccc(NC(=O)NCc2noc3ccc(C)cc23)cc1 | inconclusive: 25.1 µM [inhibitor, single point]
Cc1ccc(CNC(=O)c2oc3c(c2C)-c2nn(Cc4ccc(Cl)cc4)cc2CC3)cc1 | inconclusive: 28.2 µM [inhibitor, partial curve, poor fit]
Cc1cc(S(=O)(=O)C(CNC(=O)c2ccc(OC(C)C)cc2)c2cccs2)ccc1F (stereo not given) | inconclusive: 7.94 µM [inhibitor, partial curve, poor fit]
Cc1ccccc1S(=O)Cc1ccc(C(=O)N2CCN(c3cccc(C)c3C)CC2)o1 (stereo not given) | inconclusive: 8.91 µM [inhibitor, partial curve]
Cc1ccc(-c2c(CN3CCN(c4cccc(C)c4)C(C)C3)csc2C)cc1 (stereo not given) | inconclusive: 20 µM [inhibitor, single point]
Cc1c(Cl)cccc1NC(=O)CSc1ncc2c(n1)-c1ccccc1N(C)S2(=O)=O | inconclusive: 35.5 µM [inhibitor, single point]
COC(=O)/C=C\C(=O)OC | inactive
COc1ccc(OC)c(CNS(=O)(=O)c2ccc3c(c2)CCCN3C(C)=O)c1 | inconclusive: 35.5 µM [inhibitor, single point]
Cc1cccc(N(CC(O)Cn2c3ccccc3c3ccccc32)S(=O)(=O)c2ccc(F)cc2)c1 (stereo not given) | inconclusive: 39.8 µM [inhibitor, single point]
COc1cccc(N2CCN(C(=O)c3cccc(-n4c(C)nc5cccnc54)c3)CC2)c1 | inconclusive: 14.1 µM [inhibitor, partial curve]
C=Cc1ccc(Cn2c(C(=O)O)c(CNC3CCCCC3)c3ccc(C)cc32)cc1 | inactive
CN1C(=O)Cc2cc(S(=O)(=O)N3CCN(c4ccc(Cl)cc4)CC3)ccc21 | inconclusive: 17.8 µM [inhibitor, partial curve, poor fit]
CCOC(=O)c1[nH]c2c(c1Cc1ccccc1C)C(=O)CC(c1cc(OC)ccc1OC)C2 (stereo not given) | inconclusive: 10 µM [inhibitor, partial curve, poor fit]
O=C(COc1ccccc1)NCCc1csc(-c2ccc(Cl)cc2)n1 | inconclusive: 39.8 µM [inhibitor, single point]
O=C(c1ccc2c(c1)OCCO2)N(Cc1cccnc1)c1nc2c(Cl)cccc2s1 | inconclusive: 20 µM [inhibitor, partial curve]
CCOC(=O)c1ccc(NC(=O)C2CCN(S(=O)(=O)c3ccc4c(c3)CCCC(=O)N4)CC2)cc1 | inconclusive: 12.6 µM [inhibitor, partial curve, poor fit]
